This note sets out measurements from article PMC9911399, “Two distinct binding modes provide the RNA-binding protein RbFox with extraordinary sequence specificity”.

The chains are these.
B1: GAACGCA (DNA:RNA)
RNA: GGGAGACCGGAAUUCAGAUUGUCCGAACGCAUUAAAUCCCGUCGUAGCCACCA
DNA 1: CAATCTGAATTCCGGTCTCCC
DNA 2: TGGTGGCTACGACGGGATT
B2: UUUGUGG (DNA:RNA)
RNA: GGGAGACCGGAAUUCAGAUUGUCCUUUGUGGUUAAAUCCCGUCGUAGCCACCA
DNA 1: CAATCTGAATTCCGGTCTCCC
DNA 2: TGGTGGCTACGACGGGATT
B3: GGGAUUU (DNA:RNA)
RNA: B1 RNA with A26G, A27G, C28A, G29U, C30U, A31U
DNA 1: CAATCTGAATTCCGGTCTCCC
DNA 2: TGGTGGCTACGACGGGATT
B4: UCGUGAG (DNA:RNA)
RNA: B2 RNA with U26C, U27G, G28U, U29G, G30A
DNA 1: CAATCTGAATTCCGGTCTCCC
DNA 2: TGGTGGCTACGACGGGATT
B5: GGUGCGC (DNA:RNA)
RNA: B2 RNA with U25G, U26G, U29C, G31C
DNA 1: CAATCTGAATTCCGGTCTCCC
DNA 2: TGGTGGCTACGACGGGATT
B6: CGCGGGG (DNA:RNA)
RNA: B2 RNA with U25C, U26G, U27C, U29G
DNA 1: CAATCTGAATTCCGGTCTCCC
DNA 2: TGGTGGCTACGACGGGATT
B7: CAAGUAU (DNA:RNA)
RNA: B1 RNA with G25C, C28G, G29U, C30A, A31U
DNA 1: CAATCTGAATTCCGGTCTCCC
DNA 2: TGGTGGCTACGACGGGATT
B8: GCCGCGG (DNA:RNA)
RNA: B2 RNA with U25G, U26C, U27C, U29C
DNA 1: CAATCTGAATTCCGGTCTCCC
DNA 2: TGGTGGCTACGACGGGATT
B9: AUCGCGU (DNA:RNA)
RNA: B2 RNA with U25A, U27C, U29C, G31U
DNA 1: CAATCTGAATTCCGGTCTCCC
DNA 2: TGGTGGCTACGACGGGATT
B10: UGGACGC (DNA:RNA)
RNA: B2 RNA with U26G, U27G, G28A, U29C, G31C
DNA 1: CAATCTGAATTCCGGTCTCCC
DNA 2: TGGTGGCTACGACGGGATT
B11: AGACCUU (DNA:RNA)
RNA: B1 RNA with G25A, A26G, G29C, C30U, A31U
DNA 1: CAATCTGAATTCCGGTCTCCC
DNA 2: TGGTGGCTACGACGGGATT
B12: AUCAUAG (DNA:RNA)
RNA: B2 RNA with U25A, U27C, G28A, G30A
DNA 1: CAATCTGAATTCCGGTCTCCC
DNA 2: TGGTGGCTACGACGGGATT
B13: UUAAAGA (DNA:RNA)
RNA: B2 RNA with U27A, G28A, U29A, G31A
DNA 1: CAATCTGAATTCCGGTCTCCC
DNA 2: TGGTGGCTACGACGGGATT
B14: GGAGUGU (DNA:RNA)
RNA: B2 RNA with U25G, U26G, U27A, G31U
DNA 1: CAATCTGAATTCCGGTCTCCC
DNA 2: TGGTGGCTACGACGGGATT
B15: AACCCGU (DNA:RNA)
RNA: B1 RNA with G25A, A27C, G29C, C30G, A31U
DNA 1: CAATCTGAATTCCGGTCTCCC
DNA 2: TGGTGGCTACGACGGGATT
B16: CCCUUUG (DNA:RNA)
RNA: B2 RNA with U25C, U26C, U27C, G28U, G30U
DNA 1: CAATCTGAATTCCGGTCTCCC
DNA 2: TGGTGGCTACGACGGGATT
B17: GCGAUUC (DNA:RNA)
RNA: B1 RNA with A26C, A27G, C28A, G29U, C30U, A31C
DNA 1: CAATCTGAATTCCGGTCTCCC
DNA 2: TGGTGGCTACGACGGGATT
B18: CAUUCCU (DNA:RNA)
RNA: B1 RNA with G25C, A27U, C28U, G29C, A31U
DNA 1: CAATCTGAATTCCGGTCTCCC
DNA 2: TGGTGGCTACGACGGGATT
B19: AUUGGAG (DNA:RNA)
RNA: B2 RNA with U25A, U29G, G30A
DNA 1: CAATCTGAATTCCGGTCTCCC
DNA 2: TGGTGGCTACGACGGGATT
B20: CCGUAGA (DNA:RNA)
RNA: B1 RNA with G25C, A26C, A27G, C28U, G29A, C30G
DNA 1: CAATCTGAATTCCGGTCTCCC
DNA 2: TGGTGGCTACGACGGGATT
B21: AGCAUUU (DNA:RNA)
RNA: B2 RNA with U25A, U26G, U27C, G28A, G30U, G31U
DNA 1: CAATCTGAATTCCGGTCTCCC
DNA 2: TGGTGGCTACGACGGGATT
B22: UUCGACG (DNA:RNA)
RNA: B2 RNA with U27C, U29A, G30C
DNA 1: CAATCTGAATTCCGGTCTCCC
DNA 2: TGGTGGCTACGACGGGATT
B23: CUGGCGG (DNA:RNA)
RNA: B2 RNA with U25C, U27G, U29C
DNA 1: CAATCTGAATTCCGGTCTCCC
DNA 2: TGGTGGCTACGACGGGATT
B24: AAAACGA (DNA:RNA)
RNA: B1 RNA with G25A, C28A, G29C, C30G
DNA 1: CAATCTGAATTCCGGTCTCCC
DNA 2: TGGTGGCTACGACGGGATT
B25: AACGUAA (DNA:RNA)
RNA: B1 RNA with G25A, A27C, C28G, G29U, C30A
DNA 1: CAATCTGAATTCCGGTCTCCC
DNA 2: TGGTGGCTACGACGGGATT
B26: AAGUGGU (DNA:RNA)
RNA: B1 RNA with G25A, A27G, C28U, C30G, A31U
DNA 1: CAATCTGAATTCCGGTCTCCC
DNA 2: TGGTGGCTACGACGGGATT
B27: GCGCGAG (DNA:RNA)
RNA: B1 RNA with A26C, A27G, C30A, A31G
DNA 1: CAATCTGAATTCCGGTCTCCC
DNA 2: TGGTGGCTACGACGGGATT
B28: UCACCGG (DNA:RNA)
RNA: B2 RNA with U26C, U27A, G28C, U29C
DNA 1: CAATCTGAATTCCGGTCTCCC
DNA 2: TGGTGGCTACGACGGGATT
B29: AUAAACC (DNA:RNA)
RNA: B1 RNA with G25A, A26U, C28A, G29A, A31C
DNA 1: CAATCTGAATTCCGGTCTCCC
DNA 2: TGGTGGCTACGACGGGATT
B30: AACCGAU (DNA:RNA)
RNA: B1 RNA with G25A, A27C, C30A, A31U
DNA 1: CAATCTGAATTCCGGTCTCCC
DNA 2: TGGTGGCTACGACGGGATT
B31: UCGUAGC (DNA:RNA)
RNA: B2 RNA with U26C, U27G, G28U, U29A, G31C
DNA 1: CAATCTGAATTCCGGTCTCCC
DNA 2: TGGTGGCTACGACGGGATT

Residue numbers refer to the chain shown, from its start. The list shows a part of the results.

This test has as its target T1, RBFOX1 RRM (Homo sapiens, UniProt Q9NWB1 109-208).
T1 sequence: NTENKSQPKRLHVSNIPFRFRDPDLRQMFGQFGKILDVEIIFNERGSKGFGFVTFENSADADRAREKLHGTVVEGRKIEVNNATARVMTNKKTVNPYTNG
As to the kind of experiment: EMSA; HiTS-Eq, 1 nM pool, 10 min; buffer printed only for the single-RNA assays: 10 mM Tris pH 7.5, 150 mM NaCl, 3.4 mM EDTA, 0.001% NP-40, 30 C. The note with it: tags: His6 N-terminal (pET28a); label: 5' 32P. In short, it runs like this: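 Purified RbFox RRM (wild type or mutant) was equilibrated for 10 min in 50 µL with 1 nM of a 5′-radiolabelled pool of RNA with 7 randomized nucleotides, its flanks annealed to DNA oligonucleotides, across increasing protein concentrations. Free RNA was separated by 8% native PAGE, excised, reverse-transcribed, PCR-barcoded and sequenced on an Illumina HiSeq 2500. Relative association constants came from read-count changes of each variant against the control reaction, normalised to the cognate motif.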
In the case of B1, the binding signal was 0.00992 KA relative to UGCAUGU. In the case of B2, the binding signal was 0.0141 KA relative to UGCAUGU.

Turning to B3, the binding signal is 0.0372 KA relative to UGCAUGU. With B4 the figure was 0.00953 KA relative to UGCAUGU. In the case of B5 it was 0.0208 KA relative to UGCAUGU; in that of B6, 0.00721 KA relative to UGCAUGU; in that of B7, 0.000749 KA relative to UGCAUGU. On to B8, for which the binding signal is 0.0211 KA relative to UGCAUGU. On to B9, for which the binding signal was 0.00884 KA relative to UGCAUGU. In the case of B10, the binding signal was 0.0263 KA relative to UGCAUGU.

In the case of B11, the binding signal is 0.00425 KA relative to UGCAUGU. In the case of B12 it was 0.00236 KA relative to UGCAUGU; in that of B13, 0.00524 KA relative to UGCAUGU. Take B14: the binding signal is 0.0229 KA relative to UGCAUGU. In the case of B15 it was 0.000888 KA relative to UGCAUGU; in that of B16, 0.00727 KA relative to UGCAUGU. In the case of B17 it was 0.0142 KA relative to UGCAUGU; in that of B18, 0.00308 KA relative to UGCAUGU; in that of B19, 0.00407 KA relative to UGCAUGU.

Consider B20, for which the binding signal is 0.00944 KA relative to UGCAUGU. With B21 the figure was 0.00735 KA relative to UGCAUGU; with B22, 0.00729 KA relative to UGCAUGU; with B23, 0.00866 KA relative to UGCAUGU.

On to B24, for which the binding signal was 0.00078 KA relative to UGCAUGU. With B25 the figure was 0.000574 KA relative to UGCAUGU.

Turning to B26, the binding signal is 0.0096 KA relative to UGCAUGU.

In the case of B27, the binding signal is 0.0165 KA relative to UGCAUGU. In the case of B28 it was 0.00841 KA relative to UGCAUGU.

In the case of B29, the binding signal is 0.000687 KA relative to UGCAUGU.

As for B30, the binding signal was 0.00313 KA relative to UGCAUGU.

B31: the binding signal is 0.0085 KA relative to UGCAUGU.
